Screen size: about 310,000 compounds; about 2,200 (0.71%) showed an effect of 50% or more. Effects have a minus sign here. The list shows a part of the results.
Biological target: human ether-à-go-go-related gene (hERG) potassium channel (human, UniProt Q12809)
Experiment: primary screen, population patch clamp on CHO cells stably expressing hERG

human ether-à-go-go-related gene (hERG) potassium channel, sequence (Q12809 whole entry, looked up): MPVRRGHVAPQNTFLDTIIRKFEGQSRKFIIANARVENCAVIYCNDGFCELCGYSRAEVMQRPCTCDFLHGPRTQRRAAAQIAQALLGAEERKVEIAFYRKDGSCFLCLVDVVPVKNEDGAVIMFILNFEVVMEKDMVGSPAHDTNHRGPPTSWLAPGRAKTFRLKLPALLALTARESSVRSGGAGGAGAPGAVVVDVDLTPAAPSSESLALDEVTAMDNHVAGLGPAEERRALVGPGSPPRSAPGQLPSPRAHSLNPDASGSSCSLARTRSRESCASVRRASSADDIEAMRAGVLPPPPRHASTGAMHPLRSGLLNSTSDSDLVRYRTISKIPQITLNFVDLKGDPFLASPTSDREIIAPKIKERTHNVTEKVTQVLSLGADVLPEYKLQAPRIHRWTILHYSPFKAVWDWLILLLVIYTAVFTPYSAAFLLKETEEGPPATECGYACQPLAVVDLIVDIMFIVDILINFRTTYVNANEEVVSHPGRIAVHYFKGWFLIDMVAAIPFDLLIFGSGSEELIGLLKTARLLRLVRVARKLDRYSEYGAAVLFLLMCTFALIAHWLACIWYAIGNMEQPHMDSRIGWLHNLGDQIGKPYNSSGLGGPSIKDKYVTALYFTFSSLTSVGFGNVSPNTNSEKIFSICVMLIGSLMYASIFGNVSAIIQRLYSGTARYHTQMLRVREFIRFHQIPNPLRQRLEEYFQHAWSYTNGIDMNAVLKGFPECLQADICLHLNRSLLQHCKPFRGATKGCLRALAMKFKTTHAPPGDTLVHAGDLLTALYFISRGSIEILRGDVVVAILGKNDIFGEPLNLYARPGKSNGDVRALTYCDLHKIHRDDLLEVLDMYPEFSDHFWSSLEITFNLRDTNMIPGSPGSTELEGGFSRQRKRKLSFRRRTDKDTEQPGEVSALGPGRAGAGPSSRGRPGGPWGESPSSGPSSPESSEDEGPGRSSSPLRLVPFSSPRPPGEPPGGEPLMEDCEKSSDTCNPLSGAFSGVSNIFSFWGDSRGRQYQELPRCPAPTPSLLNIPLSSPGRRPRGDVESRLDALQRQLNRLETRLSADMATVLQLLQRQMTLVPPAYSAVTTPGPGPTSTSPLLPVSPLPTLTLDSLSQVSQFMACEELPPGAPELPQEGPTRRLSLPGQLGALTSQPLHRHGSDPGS

In order of falling “hERG current change (%, negative = inhibition) at 1uM” value:
1. CC(Oc1ccc2c3c(c(=O)oc2c1)CCCC3)C(=O)NCCN1CCOCC1 (centres unmarked)  48.4%
2. CCCCNC(=O)c1ccc2c(c1)N(C)C(=O)c1ccccc1S2  19.9%
3. CC(=O)N1CCOc2ccc(S(=O)(=O)Nc3ncccc3C)cc21  19%
4. CC1=C(C(=O)Nc2ccccn2)C(c2ccccc2)n2ncnc2N1 (centres unmarked)  17.3%
5. Cc1ccc(C2=NN(C(=O)c3cccs3)C(c3ccccc3O)C2)cc1 (centres unmarked)  15.4%
6. COc1ccccc1OCCNc1cc(N2CCCCC2)ccc1[N+](=O)[O-]  14.6%
7. Cc1cc(C)nc(-n2nc(C)c3c(=O)[nH]c(C(F)(F)F)nc32)n1  14.3%
8. Cc1cc([N+](=O)[O-])nn1CC(=O)N/N=C/c1ccccc1Br  12.9%
9. Cc1ccc(C(=O)CCC(=O)Nc2ccccc2F)cc1  12.9%
10. CC(=O)c1ccc(S(=O)(=O)N(C)CC(=O)N2CCCCCC2)cc1  12.7%
11. O=C(NC1CCCCC1)C(c1cccnc1)N(C(=O)CCl)c1ccc(F)cc1 (centres unmarked)  12.5%
12. Nc1ccc2nc(COc3ccccc3)[nH]c2c1  11.9%
13. COc1ccccc1CCNC(=O)CCn1c(=O)c2cccn2c2ccc(F)cc21  11.8%
14. c1cnc2c(OCc3nc4ccccc4[nH]3)cccc2c1  11.3%
15. Cc1noc(C)c1COC(=O)c1cccc(S(=O)(=O)N2c3ccccc3CC2C)c1 (centres unmarked)  10.5%
16. CCCCN(C(=O)CCNC(=O)NC12CC3CC(CC(C3)C1)C2)c1c(N)n(CCC)c(=O)[nH]c1=O  10.5%
17. CC(C)NC(=S)NC(=O)/C=C/c1ccc(F)cc1  10.3%
18. O=C(c1cccnc1)N1CCN(C/C=C/c2ccccc2)CC1  9.95%
19. CC[C@H](C)[C@@H](CNC)NC[C@@H](Cc1ccc(O)cc1)NCC(C)(C)C  9.94%
20. S=C(NCCCNC(=S)Nc1ccccc1)Nc1ccccc1  9.91%
21. O=C(c1ccc(S(=O)(=O)NCC2CCCO2)cc1)N1CCc2ccccc21 (centres unmarked)  9.08%
22. CCOc1ccccc1C(=O)N(CN1CCCC1=O)c1ccc(C)c(Cl)c1  8.68%
23. CCS(=O)(=O)N1Cc2ccccc2CC1C(=O)N(C)Cc1ccc(OC)cc1OC (centres unmarked)  8.41%
24. CC1Sc2ccc(S(=O)(=O)CCC(=O)Nc3cc(F)ccc3F)cc2NC1=O (centres unmarked)  7.87%
25. CNC(=O)COC(=O)c1ccc(Cl)c(S(=O)(=O)N2CCCC2)c1  7.72%
26. COc1cc2c(cc1OC)C(C)N(C(=O)c1sc(-c3cnccn3)nc1C)CC2 (centres unmarked)  7.65%
27. C=C(C)c1cccc(C(C)(C)NC(=O)N2CCN(CC(N)=O)CC2)c1  6.82%
28. c1ccc(-n2ncc3c(NCc4ccccn4)ncnc32)cc1  5.75%
29. Nc1cc(N2CCCCC2)c([N+](=O)[O-])cc1Cl  5.06%
30. CCN(CC)c1ccc(/C=N/NC(=S)NC)c(O)c1  4.81%
31. O=C1CSC(c2cccc([N+](=O)[O-])c2)N1c1c(F)cccc1F (centres unmarked)  4.55%
32. O=c1[nH]c2cccnc2n1-c1ccc([N+](=O)[O-])cc1  4.31%
33. Cc1nc(C)c(-c2csc(NCc3ccco3)n2)s1  3.94%
34. Cc1ccc(-c2c3c([nH]c(=S)c2C#N)CCCC3)o1  2.74%
35. CCCN1C(=O)S/C(=C\c2ccc(N3CCOCC3)o2)C1=O  2.6%
36. Cc1ccc(S(=O)(=O)CCC(=O)c2cccc([N+](=O)[O-])c2)cc1  2.25%
37. CSc1nc(-c2ccccc2)nc(N2CCN(C)CC2)c1C(C)=O  2.05%
38. Cn1c(=O)oc2cc(S(=O)(=O)N3CCC(C(=O)N4CCN(c5ccc(F)cc5)CC4)CC3)ccc21  1.78%
39. CCOC(=O)Nc1nnc(-c2ccccc2OC)s1  1.2%
40. Nc1nnc(SCc2nnc(-c3ccccc3)o2)s1  0.773%
41. COC(=O)c1ccc(N2CCOCC2)c(NC(=O)c2cccs2)c1  0.514%
42. Cc1cccc(C)c1OCC(O)CNS(=O)(=O)c1ccccc1C(=O)N1CCCCC1 (centres unmarked)  0.147%
43. CC(C)OC(=O)c1ccc(COC(=O)c2cccc(-c3nnc(-c4ccccc4)o3)c2)cc1  -0.142%
44. Cc1ccc(CN2CCN(Cc3cccc(C)n3)CC2CCO)cc1 (centres unmarked)  -2.38%
45. COc1ccc(C)cc1NC(=O)CSc1nc(=O)n(CCCN2CCOCC2)c2c1CCCC2  -3.06%
46. COCCN(Cc1cc2ccc(C)cc2n2nnnc12)Cc1nnnn1C(C)(C)C  -3.14%
47. CC(Sc1sc(=S)sc1SC(C)C(=O)O)C(=O)O (centres unmarked)  -4.45%
48. COC(=O)c1ccccc1NC(=O)CSc1nnc(COc2cccc(OC)c2)n1C  -6.49%
49. COc1ccc(-c2cc(C(=O)Nc3nc4c(C)cccc4s3)c3ccccc3n2)cc1OC  -9.29%
50. O=C(NCCC(=O)N(CCc1ccccc1)Cc1ccccc1)c1ccccc1Cl  -11.1%
51. Cc1ccc2[nH]cc(CCNC(=O)c3cccnc3)c2c1  -16.7%
52. COc1ccccc1NC(=O)CN(Cc1ccco1)C(=O)c1ccc(-n2nc(C)cc2C)cc1  -18.9%
53. O=C(c1ccco1)N1CCN(C(=O)c2oc(=O)c3ccccc3c2-c2ccccc2)CC1  -26.4%
54. CCN(CC)CCCN(C(=O)c1ccc(Br)cc1)c1nc(-c2ccc(OC)cc2)cs1.Cl  -43.6%
55. Cc1ccc(N2C(=O)C(CN3CCCC3)C2c2ccccc2)cc1 (centres unmarked)  -70.6%
56. CCOC(=O)C1(CCOc2ccccc2)CCN(Cc2ccc(OC)cc2)CC1  -77.4%
